# Some of the results follow.
# B1: GS7807H-bfa-490-18-490 (Bacteroides fragilis) (protein)
# chain: GNLEEMNIDPDNATQTHPKLLLTQICMNAFKRGTDGMYATKKVIQADGESADQYYKWTRGSFGYYDNLRNVQKMGEEAERVNAPVYTALTKFFRAYYFYELTLRFGDIPYSQALKGEKEEIYTPEYDAQEDVFAGILQELREADEILANDASVIDGDIIYNGNSTQWRKLINSFRLKVLMTLSNHTTVGNINIASEFKNIATNSPLMNSLADNGQLVYLDQQGNRYPQFNAQWSGYYMDDTFIQRMRERRDPRLFIFSAQTNKGKTEGKPIDDFSSYEGGDPAAPYSDAIIKVSEGTISPINDRFRTDPIVEPTMLMGYAELQQILAEAVVRGWISGNAQTYYEKGIRASFSFYETHAKDYAGYLNENAVAQYLKEPLVDFTQASGTEEQIERIIMQKYLVTFYQGNWDSFYEQLRTGYPDFRRPAGTEIPKRWMYPQGEYDNNGTNVETAITRQFGAGNDKINQATWWQKKS
# Legend:
# Assay in all cases: glycan array binding signal (z-score within array); higher = stronger binding
# Conditions in all cases: glycan notation: IUPAC condensed, linker removed
# [1] = biological target: GlcNAc(a1-4)Gal(b1-3)GlcNAc
# Method in brief: (§1)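 From the Consortium for Functional Glycomics database, 3228 arrays were curated, keeping only those whose protein sequence was available. Binding is given as a within-array Z-score averaged across arrays sharing a protein sequence and across linkers. Negative Z-scores can be read as non-binding.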
# [2] = biological target: GlcNAc(a1-4)Gal(b1-4)GalNAc
# Method in brief: as §1
# [3] = biological target: GlcNAc(a1-4)Gal(b1-4)GlcNAc
# Method in brief: as §1
# [4] = biological target: GlcNAc(a1-4)Gal(b1-4)GlcNAc(b1-3)Gal(b1-4)Glc
# Method in brief: as §1
# [5] = biological target: GlcNAc(a1-4)Gal(b1-4)GlcNAc(b1-3)Gal(b1-4)GlcNAc
# Method in brief: as §1
# [6] = biological target: GlcNAc(a1-4)Gal(b1-4)GlcNAc(b1-3)Gal(b1-4)GlcNAc(b1-3)Gal(b1-4)GlcNAc
# Method in brief: as §1
# [7] = biological target: GlcNAc(a1-4)Gal(b1-4)GlcNAc(b1-3)Gal(b1-4)[Fuc(a1-3)]GlcNAc(b1-3)Gal(b1-4)[Fuc(a1-3)]GlcNAc
# Method in brief: as §1
# [8] = biological target: GlcNAc(a1-6)Gal(b1-4)GlcNAc
# Method in brief: as §1
# [9] = biological target: GlcNAc(b1-2)Gal(b1-3)GalNAc
# Method in brief: as §1
# [10] = biological target: GlcNAc(b1-2)Man(a1-3)[GlcNAc(b1-2)Man(a1-6)]Man(b1-4)GlcNAc(b1-4)GlcNAc
# Method in brief: as §1
# [11] = biological target: GlcNAc(b1-2)Man(a1-3)[GlcNAc(b1-2)Man(a1-6)]Man(b1-4)GlcNAc(b1-4)[Fuc(a1-6)]GlcNAc
# Method in brief: as §1
# [12] = biological target: GlcNAc(b1-2)Man(a1-3)[GlcNAc(b1-4)][GlcNAc(b1-2)Man(a1-6)]Man(b1-4)GlcNAc(b1-4)GlcNAc
# Method in brief: as §1
# [13] = biological target: GlcNAc(b1-2)Man(a1-3)[GlcNAc(b1-4)][GlcNAc(b1-2)Man(a1-6)]Man(b1-4)GlcNAc(b1-4)[Fuc(a1-6)]GlcNAc
# Method in brief: as §1
# [14] = biological target: GlcNAc(b1-2)[GlcNAc(b1-4)]Man(a1-3)[GlcNAc(b1-2)Man(a1-6)]Man(b1-4)GlcNAc(b1-4)GlcNAc
# Method in brief: as §1
# [15] = biological target: GlcNAc(b1-2)[GlcNAc(b1-4)]Man(a1-3)[GlcNAc(b1-4)][GlcNAc(b1-2)Man(a1-6)]Man(b1-4)GlcNAc(b1-4)GlcNAc
# Method in brief: as §1
# [16] = biological target: GlcNAc(b1-2)[GlcNAc(b1-4)]Man(a1-3)[GlcNAc(b1-4)][GlcNAc(b1-2)[GlcNAc(b1-6)]Man(a1-6)]Man(b1-4)GlcNAc(b1-4)GlcNAc
# Method in brief: as §1
# [17] = biological target: GlcNAc(b1-2)[GlcNAc(b1-4)]Man(a1-3)[GlcNAc(b1-4)][GlcNAc(b1-2)[GlcNAc(b1-6)]Man(a1-6)]Man(b1-4)GlcNAc(b1-4)[Fuc(a1-6)]GlcNAc
# Method in brief: as §1
# [18] = biological target: GlcNAc(b1-2)[GlcNAc(b1-6)]Man(a1-6)[GlcNAc(b1-2)Man(a1-3)]Man(b1-4)GlcNAc(b1-4)GlcNAc
# Method in brief: as §1
# [19] = biological target: GlcNAc(b1-2)[GlcNAc(b1-6)]Man(a1-6)[GlcNAc(b1-2)Man(a1-3)]Man(b1-4)GlcNAc(b1-4)[Fuc(a1-6)]GlcNAc
# Method in brief: as §1
# [20] = biological target: GlcNAc(b1-2)[GlcNAc(b1-6)]Man(a1-6)[GlcNAc(b1-4)][GlcNAc(b1-2)Man(a1-3)]Man(b1-4)GlcNAc(b1-4)GlcNAc
# Method in brief: as §1
# GlcNAc(b1-3)Fuc = biological target: GlcNAc(b1-3)Fuc
# Method in brief: as §1
# GlcNAc(b1-3)Gal = biological target: GlcNAc(b1-3)Gal
# Method in brief: as §1
# [21] = biological target: GlcNAc(b1-3)Gal(b1-3)GalNAc
# Method in brief: as §1
# GlcNAc(b1-3)Gal(b1-4)Glc = biological target: GlcNAc(b1-3)Gal(b1-4)Glc
# Method in brief: as §1
# [22] = biological target: GlcNAc(b1-3)Gal(b1-4)GlcNAc
# Method in brief: as §1
# [23] = biological target: GlcNAc(b1-3)Gal(b1-4)GlcNAc(b1-2)Man(a1-3)[GlcNAc(b1-3)Gal(b1-4)GlcNAc(b1-2)Man(a1-6)]Man(b1-4)GlcNAc(b1-4)GlcNAc
# Method in brief: as §1
# [24] = biological target: GlcNAc(b1-3)Gal(b1-4)GlcNAc(b1-2)Man(a1-3)[GlcNAc(b1-3)Gal(b1-4)GlcNAc(b1-2)Man(a1-6)]Man(b1-4)GlcNAc(b1-4)[Fuc(a1-6)]GlcNAc
# Method in brief: as §1
# [25] = biological target: GlcNAc(b1-3)Gal(b1-4)GlcNAc(b1-2)[GlcNAc(b1-3)Gal(b1-4)GlcNAc(b1-6)]Man(a1-6)[GlcNAc(b1-3)Gal(b1-4)GlcNAc(b1-2)Man(a1-3)]Man(b1-4)GlcNAc(b1-4)GlcNAc
# Method in brief: as §1
# [26] = biological target: GlcNAc(b1-3)Gal(b1-4)GlcNAc(b1-3)Gal(b1-4)GlcNAc
# Method in brief: as §1
# [27] = biological target: GlcNAc(b1-3)Gal(b1-4)GlcNAc(b1-3)Gal(b1-4)GlcNAc(b1-2)Man(a1-3)[GlcNAc(b1-3)Gal(b1-4)GlcNAc(b1-3)Gal(b1-4)GlcNAc(b1-2)Man(a1-6)]Man(b1-4)GlcNAc(b1-4)GlcNAc
# Method in brief: as §1
# [28] = biological target: GlcNAc(b1-3)Gal(b1-4)GlcNAc(b1-3)Gal(b1-4)GlcNAc(b1-2)Man(a1-3)[GlcNAc(b1-3)Gal(b1-4)GlcNAc(b1-3)Gal(b1-4)GlcNAc(b1-2)Man(a1-6)]Man(b1-4)GlcNAc(b1-4)[Fuc(a1-6)]GlcNAc
# Method in brief: as §1
# [29] = biological target: GlcNAc(b1-3)Gal(b1-4)GlcNAc(b1-3)Gal(b1-4)GlcNAc(b1-2)[GlcNAc(b1-3)Gal(b1-4)GlcNAc(b1-3)Gal(b1-4)GlcNAc(b1-6)]Man(a1-6)[GlcNAc(b1-3)Gal(b1-4)GlcNAc(b1-3)Gal(b1-4)GlcNAc(b1-2)Man(a1-3)]Man(b1-4)GlcNAc(b1-4)[Fuc(a1-6)]GlcNAc
# Method in brief: as §1
# [30] = biological target: GlcNAc(b1-3)Gal(b1-4)GlcNAc(b1-3)Gal(b1-4)GlcNAc(b1-3)Gal(b1-4)GlcNAc(b1-2)Man(a1-3)[GlcNAc(b1-3)Gal(b1-4)GlcNAc(b1-3)Gal(b1-4)GlcNAc(b1-3)Gal(b1-4)GlcNAc(b1-2)Man(a1-6)]Man(b1-4)GlcNAc(b1-4)GlcNAc
# Method in brief: as §1
# [31] = biological target: GlcNAc(b1-3)Gal(b1-4)GlcNAc(b1-3)Gal(b1-4)GlcNAc(b1-3)Gal(b1-4)GlcNAc(b1-2)Man(a1-3)[GlcNAc(b1-3)Gal(b1-4)GlcNAc(b1-3)Gal(b1-4)GlcNAc(b1-3)Gal(b1-4)GlcNAc(b1-2)Man(a1-6)]Man(b1-4)GlcNAc(b1-4)[Fuc(a1-6)]GlcNAc
# Method in brief: as §1
# [32] = biological target: GlcNAc(b1-3)Gal(b1-4)GlcNAc(b1-3)Gal(b1-4)GlcNAc(b1-3)Gal(b1-4)GlcNAc(b1-2)[GlcNAc(b1-3)Gal(b1-4)GlcNAc(b1-3)Gal(b1-4)GlcNAc(b1-3)Gal(b1-4)GlcNAc(b1-6)]Man(a1-6)[GlcNAc(b1-3)Gal(b1-4)GlcNAc(b1-3)Gal(b1-4)GlcNAc(b1-3)Gal(b1-4)GlcNAc(b1-2)Man(a1-3)]Man(b1-4)GlcNAc(b1-4)[Fuc(a1-6)]GlcNAc
# Method in brief: as §1
# [33] = biological target: GlcNAc(b1-3)Gal(b1-4)GlcNAc(b1-3)Gal(b1-4)GlcNAc(b1-3)Gal(b1-4)GlcNAc(b1-3)Gal(b1-4)GlcNAc(b1-2)Man(a1-3)[GlcNAc(b1-3)Gal(b1-4)GlcNAc(b1-3)Gal(b1-4)GlcNAc(b1-3)Gal(b1-4)GlcNAc(b1-3)Gal(b1-4)GlcNAc(b1-2)Man(a1-6)]Man(b1-4)GlcNAc(b1-4)GlcNAc
# Method in brief: as §1
# [34] = biological target: GlcNAc(b1-3)Gal(b1-4)GlcNAc(b1-3)Gal(b1-4)GlcNAc(b1-3)Gal(b1-4)GlcNAc(b1-3)Gal(b1-4)GlcNAc(b1-2)Man(a1-3)[GlcNAc(b1-3)Gal(b1-4)GlcNAc(b1-3)Gal(b1-4)GlcNAc(b1-3)Gal(b1-4)GlcNAc(b1-3)Gal(b1-4)GlcNAc(b1-2)Man(a1-6)]Man(b1-4)GlcNAc(b1-4)[Fuc(a1-6)]GlcNAc
# Method in brief: as §1
# [35] = biological target: GlcNAc(b1-3)Gal(b1-4)GlcNAc(b1-3)Gal(b1-4)GlcNAc(b1-3)Gal(b1-4)GlcNAc(b1-3)Gal(b1-4)GlcNAc(b1-2)[GlcNAc(b1-3)Gal(b1-4)GlcNAc(b1-3)Gal(b1-4)GlcNAc(b1-3)Gal(b1-4)GlcNAc(b1-3)Gal(b1-4)GlcNAc(b1-6)]Man(a1-6)[GlcNAc(b1-3)Gal(b1-4)GlcNAc(b1-3)Gal(b1-4)GlcNAc(b1-3)Gal(b1-4)GlcNAc(b1-3)Gal(b1-4)GlcNAc(b1-2)Man(a1-3)]Man(b1-4)GlcNAc(b1-4)[Fuc(a1-6)]GlcNAc
# Method in brief: as §1
binder,measurement,setting,value
B1,glycan array binding signal (z-score),[1],-0.192
same,glycan array binding signal (z-score),[2],-0.706
same,glycan array binding signal (z-score),[3],-0.197
same,glycan array binding signal (z-score),[4],-0.187
same,glycan array binding signal (z-score),[5],-0.181
same,glycan array binding signal (z-score),[6],-0.424
same,glycan array binding signal (z-score),[7],-0.118
same,glycan array binding signal (z-score),[8],0.08
same,glycan array binding signal (z-score),[9],-0.257
same,glycan array binding signal (z-score),[10],-0.003
same,glycan array binding signal (z-score),[11],0.507
same,glycan array binding signal (z-score),[12],-0.317
same,glycan array binding signal (z-score),[13],-0.103
same,glycan array binding signal (z-score),[14],-0.442
same,glycan array binding signal (z-score),[15],-0.221
same,glycan array binding signal (z-score),[16],-0.583
same,glycan array binding signal (z-score),[17],-0.453
same,glycan array binding signal (z-score),[18],-0.528
same,glycan array binding signal (z-score),[19],-0.046
same,glycan array binding signal (z-score),[20],-0.365
same,glycan array binding signal (z-score),GlcNAc(b1-3)Fuc,-0.702
same,glycan array binding signal (z-score),GlcNAc(b1-3)Gal,-0.808
same,glycan array binding signal (z-score),[21],-0.179
same,glycan array binding signal (z-score),GlcNAc(b1-3)Gal(b1-4)Glc,-0.121
same,glycan array binding signal (z-score),[22],-0.554
same,glycan array binding signal (z-score),[23],0.031
same,glycan array binding signal (z-score),[24],0.593
same,glycan array binding signal (z-score),[25],0.614
same,glycan array binding signal (z-score),[26],-0.502
same,glycan array binding signal (z-score),[27],0.6
same,glycan array binding signal (z-score),[28],0.334
same,glycan array binding signal (z-score),[29],-0.421
same,glycan array binding signal (z-score),[30],0.156
same,glycan array binding signal (z-score),[31],1.34
same,glycan array binding signal (z-score),[32],0.708
same,glycan array binding signal (z-score),[33],0.319
same,glycan array binding signal (z-score),[34],4.28
same,glycan array binding signal (z-score),[35],0.107
